The results in this text go back to article PMC5700166.

The list shows a part of the results, in another mix than the full data. The list includes weakly bound sequences.

What all share (assay): protein-binding microarray (PBM)
What all share (settings): PBM: ~300 nM protein, 6 mM HEPES pH 7.8, 80 mM KCl, 0.5 mM EDTA, 0.5 mM EGTA, 6% glycerol, 35 ng/ul poly-dIdC, 1% milk, 1 h, room temperature; Ap Aiptasia and Nv Nematostella (sea anemones) / Co Capsaspora / Aq Amphimedon (sponge) / Dm Drosophila / Hu human; RHD is the Rel homology domain; high values mean tight binding; most listed sequences are background and not binding sites; double strand, one strand shown

One assay deals with T1, GST-Ap-NF-kB RHD (UniProt A0A913YAJ5).
T1 sequence: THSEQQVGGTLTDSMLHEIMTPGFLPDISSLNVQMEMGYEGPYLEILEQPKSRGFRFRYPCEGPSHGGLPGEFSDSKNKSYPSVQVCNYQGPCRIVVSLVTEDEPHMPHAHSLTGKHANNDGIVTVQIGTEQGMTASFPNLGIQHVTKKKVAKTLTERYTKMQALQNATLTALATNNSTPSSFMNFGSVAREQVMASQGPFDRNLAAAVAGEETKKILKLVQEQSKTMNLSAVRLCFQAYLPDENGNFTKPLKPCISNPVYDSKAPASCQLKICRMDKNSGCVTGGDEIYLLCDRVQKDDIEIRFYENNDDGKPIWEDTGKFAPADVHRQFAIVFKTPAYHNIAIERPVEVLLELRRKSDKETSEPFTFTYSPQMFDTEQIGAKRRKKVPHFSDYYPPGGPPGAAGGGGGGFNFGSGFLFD

For assay [1], the target named is T2, GST-Nv-NF-kB (Cys allele) (UniProt E5G601).
T2 sequence: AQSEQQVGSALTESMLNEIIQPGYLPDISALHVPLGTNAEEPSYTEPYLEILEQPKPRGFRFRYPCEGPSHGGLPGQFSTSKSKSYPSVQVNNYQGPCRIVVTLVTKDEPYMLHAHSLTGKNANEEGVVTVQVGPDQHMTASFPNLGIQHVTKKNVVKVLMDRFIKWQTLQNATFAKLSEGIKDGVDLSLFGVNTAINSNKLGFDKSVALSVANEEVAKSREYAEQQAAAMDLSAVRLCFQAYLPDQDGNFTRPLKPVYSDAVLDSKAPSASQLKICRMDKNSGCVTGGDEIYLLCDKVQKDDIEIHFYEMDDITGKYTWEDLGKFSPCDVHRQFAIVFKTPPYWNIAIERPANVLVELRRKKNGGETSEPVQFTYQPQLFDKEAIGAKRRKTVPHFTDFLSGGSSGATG

A further assay deals with T3, GST-Co-NF-kB (UniProt F1ARL5).
T3 sequence: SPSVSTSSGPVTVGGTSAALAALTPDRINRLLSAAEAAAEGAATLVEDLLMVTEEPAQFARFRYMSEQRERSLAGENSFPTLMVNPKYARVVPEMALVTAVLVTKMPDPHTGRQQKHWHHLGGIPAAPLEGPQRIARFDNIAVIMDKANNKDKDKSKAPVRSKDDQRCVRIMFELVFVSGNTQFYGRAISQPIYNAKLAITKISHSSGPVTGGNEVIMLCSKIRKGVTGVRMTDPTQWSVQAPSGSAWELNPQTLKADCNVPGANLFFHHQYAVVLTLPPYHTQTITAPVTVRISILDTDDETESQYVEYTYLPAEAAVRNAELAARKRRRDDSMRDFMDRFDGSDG

The target in a further assay is T4, GST-Dm-Relish (UniProt Q94527).
T4 sequence: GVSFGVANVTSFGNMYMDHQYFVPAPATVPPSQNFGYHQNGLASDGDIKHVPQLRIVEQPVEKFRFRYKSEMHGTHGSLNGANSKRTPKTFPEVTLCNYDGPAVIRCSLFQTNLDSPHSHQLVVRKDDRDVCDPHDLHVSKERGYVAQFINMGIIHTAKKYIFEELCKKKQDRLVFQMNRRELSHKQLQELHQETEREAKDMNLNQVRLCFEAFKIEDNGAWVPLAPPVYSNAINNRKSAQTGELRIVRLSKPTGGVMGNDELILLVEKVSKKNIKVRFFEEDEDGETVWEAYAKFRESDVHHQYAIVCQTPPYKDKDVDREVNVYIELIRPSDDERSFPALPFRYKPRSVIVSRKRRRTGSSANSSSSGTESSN

The target of a further assay is T5, GST-Aq-NF-kB (UniProt A9Y5G7).
T5 sequence: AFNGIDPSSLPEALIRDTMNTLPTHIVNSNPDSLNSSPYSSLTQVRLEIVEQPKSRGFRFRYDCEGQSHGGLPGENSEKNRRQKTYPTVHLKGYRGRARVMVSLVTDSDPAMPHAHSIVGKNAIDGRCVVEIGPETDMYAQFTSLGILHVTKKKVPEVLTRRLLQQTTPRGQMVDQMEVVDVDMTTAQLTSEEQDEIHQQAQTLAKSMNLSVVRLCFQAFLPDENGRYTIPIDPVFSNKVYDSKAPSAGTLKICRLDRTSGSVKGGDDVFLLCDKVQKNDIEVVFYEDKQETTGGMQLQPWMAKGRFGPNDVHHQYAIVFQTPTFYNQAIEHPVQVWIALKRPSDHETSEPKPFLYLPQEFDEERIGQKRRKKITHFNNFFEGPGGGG

“CCGATTAACATCATATGGGATCGTGATGTTAATCGGGTCTTGATTCGCTTGACGCTGCTG”: the binding signal with GST-Ap-NF-kB RHD was 0.504 z-score; in assay [1], -1.05 z-score; in the assay with GST-Co-NF-kB, 0.162 z-score; with GST-Dm-Relish, 0.314 z-score; with GST-Aq-NF-kB, 0.338 z-score.

For “CCGATTAACATCAGATCACACACTGATGTTAATCGGGTCTTGATTCGCTTGACGCTGCTG”, the binding signal in the assay with GST-Ap-NF-kB RHD is -0.441 z-score; in assay [1], -0.0743 z-score; with GST-Co-NF-kB, 0.0405 z-score; with GST-Dm-Relish, -0.317 z-score; with GST-Aq-NF-kB, -0.353 z-score.

Consider “CCGATTAACATCAAGGCAGGCATTGATGTTAATCGGGTCTTGATTCGCTTGACGCTGCTG”, for which the binding signal was -0.165 z-score with GST-Ap-NF-kB RHD; -0.159 z-score in assay [1]; -0.387 z-score with GST-Co-NF-kB; -0.631 z-score with GST-Dm-Relish; -0.46 z-score in the assay with GST-Aq-NF-kB.

For the sequence “CCGATTAACATCACGATTCGATGTGATGTTAATCGGGTCTTGATTCGCTTGACGCTGCTG”, the binding signal with GST-Ap-NF-kB RHD is -1.49 z-score; in assay [1], -0.614 z-score; with GST-Co-NF-kB, -0.838 z-score; with GST-Dm-Relish, -0.109 z-score; in the assay with GST-Aq-NF-kB, -0.732 z-score.

In the case of “CCGATTAACATCAGCCAGCACTCTGATGTTAATCGGGTCTTGATTCGCTTGACGCTGCTG”, the binding signal is -0.175 z-score with GST-Ap-NF-kB RHD; -0.374 z-score in assay [1]; -0.912 z-score with GST-Co-NF-kB; -0.588 z-score in the assay with GST-Dm-Relish; -0.558 z-score with GST-Aq-NF-kB.

Regarding “CCGATTAACATCACGGAATGGCCTGATGTTAATCGGGTCTTGATTCGCTTGACGCTGCTG”, the binding signal with GST-Ap-NF-kB RHD was 0.0121 z-score; in assay [1], -0.556 z-score; in the assay with GST-Co-NF-kB, 0.199 z-score; with GST-Dm-Relish, 0.51 z-score; with GST-Aq-NF-kB, 0.384 z-score.

As for “CCGATTAACATCATGACTTAGAATGATGTTAATCGGGTCTTGATTCGCTTGACGCTGCTG”, the binding signal was -0.749 z-score in the assay with GST-Ap-NF-kB RHD; -0.218 z-score in assay [1]; -0.227 z-score with GST-Co-NF-kB; -0.665 z-score with GST-Dm-Relish; -0.493 z-score in the assay with GST-Aq-NF-kB.

Turning to “CCGATTAACATCAACCAGTAGACTGATGTTAATCGGGTCTTGATTCGCTTGACGCTGCTG”, the binding signal is -0.559 z-score with GST-Ap-NF-kB RHD; -0.642 z-score in assay [1]; -0.294 z-score with GST-Co-NF-kB; -0.34 z-score in the assay with GST-Dm-Relish; -0.326 z-score in the assay with GST-Aq-NF-kB.

For “CCGATTAACATCAGGGAGATCCCTGATGTTAATCGGGTCTTGATTCGCTTGACGCTGCTG”, the binding signal with GST-Ap-NF-kB RHD was determined as 7.41 z-score; in assay [1], 8.14 z-score; in the assay with GST-Co-NF-kB, 1.54 z-score; with GST-Dm-Relish, 7.36 z-score; in the assay with GST-Aq-NF-kB it was 8.85 z-score.

In the case of “CCGATTAACATCACGTGAATTCCTGATGTTAATCGGGTCTTGATTCGCTTGACGCTGCTG”, the binding signal is 0.191 z-score with GST-Ap-NF-kB RHD; -0.598 z-score in assay [1]; 0.37 z-score in the assay with GST-Co-NF-kB; 2.84 z-score in the assay with GST-Dm-Relish; 0.775 z-score with GST-Aq-NF-kB.

“CCGATTAACATCAATAAGTTCCTTGATGTTAATCGGGTCTTGATTCGCTTGACGCTGCTG”: the binding signal is -0.555 z-score with GST-Ap-NF-kB RHD; -0.136 z-score in assay [1]; 0.152 z-score with GST-Co-NF-kB; 0.0693 z-score with GST-Dm-Relish; -0.181 z-score with GST-Aq-NF-kB.

Turning to “CCGATTAACATCATAGACACGTGTGATGTTAATCGGGTCTTGATTCGCTTGACGCTGCTG”, the binding signal with GST-Ap-NF-kB RHD is -0.209 z-score; in assay [1], -0.469 z-score; with GST-Co-NF-kB, -0.554 z-score; with GST-Dm-Relish, 0.00576 z-score; in the assay with GST-Aq-NF-kB, -0.29 z-score.

For the sequence “CCGATTAACATCATCGAGCATGCTGATGTTAATCGGGTCTTGATTCGCTTGACGCTGCTG”, the binding signal with GST-Ap-NF-kB RHD was -0.372 z-score; in assay [1], -0.614 z-score; in the assay with GST-Co-NF-kB, -1.8 z-score; with GST-Dm-Relish it was -0.855 z-score; with GST-Aq-NF-kB it was -0.515 z-score.
